Laboratory results reported in the RNAGym collection of RNA variant scans (doi:10.7554/elife.90254).
Read counts are not given, so values of variants with three or more changes are uncertain.

B1: LINE1-full (parent)
chain: UACGUAGGUGGUUUUCCCCUGAUAGUGCUAAGGGGGCCUGGAAGUUUGGACUGGGCAGAGCUCAACACAGCGUGGCAAAGUGGCUGUGGCUAGACUGCCUCUCUGGAUUCCUCGUCACUCAGCAGGGCAUCUCUGAGAGAAAUGCC

Variants of: B1
Assay: self-cleavage, relative activity (ratio to wild type); higher = more cleavage; in vitro, sequencing; the parent is a self-cleaving ribozyme

Variant	self-cleavage
U91C C131U A138G	0.9
G48C A69U U143A	0.11
A43G A67G U143C	0.44
A22G G60U U73C A92G U100C U112C	0
U46C G72U U109C A117U U119A	1.05
C17A G93U U102C	0.04
U13C U46C A65G U73A U85A	0.92
A107G A121U A129G	0.84
U62C U73A U100A A141G	0.02
U12C U47C U62C C113U	0.11
A42U U52C A79G U100A U119C U143A	0.14
A22U G35C U91C A142G U143C	1.45
A6C U12A A43G U62C U132C	0
U73A A77G C90A U130C	0.04
G44A U62A U73A	0.03
G10A A67U A69U A79G U87C U115C	0
G32A A67U U115C	0.13
U5A U52A A138G	1.36
G72A A77G U85C A94G A140G	0
U9C U13C A59G A65G	0
U46C A92G U108C C116A A121G	0
A42G C84A A129G A142G	0.16
C3U A22G C71A U85C A138G	0.09
U47A A57G A136U	1.13

Variant	self-cleavage
A43G A50C U115C	0.71
U15C U100A U132C A142G	1.16
C18U A43G U143C	0.22
G10U U119A A142G	1.18
U13C G35A C145U	0.96
U81C U112C U132A U143C	2.12
U15A U87A A142G	0
U47C A69U U96A U108C U130C	0
C28A U45C C51U G55A A59U A94U	0.01
U26C U29A U47A U52A U104C C113A	1.42
A43G A79G U100A U119A	0.84
U5A U20A A43G C56U A124G A136G	0.13
U9G U100C U130C U143C	1.6
U46C U52A A79G U132C	0.71
U20A A69G U109A U134A A142G	0.07
A24U U29C A64U	0.54
A30G A138U A140G	1.48
A57G U115C A141G	1.69
U39A A117U U119C	1.58
G44A U47A A59G U134C	0.06
U46C G48A U81C	0.98
U85C U104C A140G	0
C18U C37U A42G U115C	0.52
A42G A57G A67G G74A	0.28

Variant	self-cleavage
C101A U102C U104C	0.85
U39C G41A A94G A117U	0.25
U1C U12C U85C A138G	0.24
C37A A43G A121C	1.57
U47A A92G A124G	0.22
U15C A22U G36A G127U	0.91
U5C A57U A117G U143A	0
U39A A50U A79G U91C U132A	0
U46A U108A U115C U143A	1.21
U15C A121G A140G	1.31
U5C U13C U104G	0
A42G U134C A142G	0.43
A6G C19U U23A A142G	1.53
A2G U87A A107G	0.16
U20A U115A A129G	1.45
U14C U47C A69G	0
U20A U45A U100C A140G	1.5
U104A A129U U132A U143A	0.98
U13C A117U U134C A142G	2.07
A50G U62A U132A U143C	0.14
G25A A30G G88A U109C A121G	0.11
G7U A117C A138G	0.77
A64G A65U G74A A77G A121G	0
A30U U73C U119C	0.88

Variant	self-cleavage
U20C C101A U115A	1.29
U9A U15A G34A A94G U104C	0.13
U23G A24G U62C U102A	0
U26A C66U U73A U102C A107G U108C U112C	0.08
A77G A92U A107G	2.1
U47A A50G U52A G105A	0.83
U23C A31G A59U A142G	1.84
A67G A69G U104A A124G	0
C63A A140G A141G	0.03
U14C G40A U73A U119C	0.96
A2G U14C G53A A69G C76A	0.28
U39A A43G U104A	0.45
C16U A42G A69G U112A	0.28
U13C U112A U143C	1.08
A42C C123U A138G	1.16
U39A U85C A138U	0.11
U47A A64G U85A A136U	0.16
U73C A79G C133U A136G	1.53
C18U C76A U115C	2.09
U46A A59G A65U U134C	0.13
U9C U62A G72A A142G	0.08
U47A A77U U143A	1.32
G58U U81A A121G A136G	0.05
A6G G88A U104A	0.06

Variant	self-cleavage
U12A A24G U85A	0.2
U39C U73C U91C C99U	0
U5C G27A A138U	1.06
U12C U46C G122U A141G	1.24
A59G A77G A140G	0.6
U14C U81C U96A A136G	0.27
U91A U100C A129G	2.06
G8A U15C U73C A77G A138G	2.83
A94G A121G A141G	0.45
A31U A117G A136U	0.66
U5C G35A U96C	0.28
U39A U81G A121U	2.1
C19A U102C U132C	1.02
G32A U45C A140G	0.68
A31G A94G U100C	0.71
A64G C103U A124G	0.3
U62C A78G U119A	0
U12G A30G U109A	1.62
A24G G25A C68A U96A A142G	0.26
A6U C111A C113U	1.04
C38U A65U A107G A141G U143C	0.25
A65G U81A A94U	0.03
C18A A31G U91C A117G U132C	0
A2G U85C A140G	0

Variant	self-cleavage
G82A U100C U102C	2.42
A6G A57C A69U	0.09
A79U A141G A142G	2.23
A6G A24G A59G A78U U143A	0.35
A2G G125A A138G	0.97
G86A U115C U134C A141G	0.04
A30G U62A U96A	0.08
U15A A30G A64G C146U	0
U13C U14C U108C U132C	1.75
U15C U102A A142G	2.86
U46C U134C U143A	1.2
U45C U52A A140U	1.67
U14C C51U A140U	0.97
A67C U73C U96A	0.03
A42G U87A U102C	0.16
U15C A59G U102A U108C	0
U1C U47A U73C U104C A136G	1.39
U26C U46A A50G U52C U102C	0
U20A U46C A57G A77G	1.53
U15C A65G U85A A94G A121U	0.08
U9C U14C G36A G55A U81C U100C	0.62
U14C U45C U108C G125U	1.39
U13C A43U A57G	1.26
U29C A30G C71U A92U A117G	0.46

Variant	self-cleavage
U12A U26A A50G A79G A124U	0.32
A24G A117C U134G	1.63
U14C G34A A64G C116U	0.2
U9C A64U A79U	0.9
U1C A22G U26C A69G U81A G93U U130C U143A	0
U47C U62C A129U	0.04
U112C G114A A124G G127U	1.04
U26C A42G A142G	1.12
U5C U20C A50G	0.92
A6G U14C A64G	0.96
U14A A24U U52C A141G	0.47
U39G U46C U108C A136G	0
U9C U12C C63U U132C	0.78
U62C C84U U96A A141G	0.02
A50U G80U U104C U130C	1.53
U39C A77G C103A A117U	1.73
U39A U85A A140G A142G	0
G54A U130A A140G	0.58
A92C A94G U134A	0.48
A59U A69C U91C	0.08
U96A A138G U143C	0.09
U14C A50G G72A	0.88
A79G A94G G122U A140U	0.3
